Out of some 320,000 compounds screened, about 200 (0.062%) were called active. The inconclusive results got no clear call from the source; some entries with a clear call stand among them for comparison. Calls come from the whole dose curve; as a rule, active = well fitted activation curve with a large enough effect; inconclusive = small, poorly fitted or top-dose-only effect; inactive = no such curve, though single readings can be large or run the other way. Potencies of inconclusive entries are left out as doubtful fits.
Experiment: qHTS assay for re-activators of p53 using a Luc reporter; note: nearly all actives have a fitted effect of over 45% in size; for activity change, positive = activation: % of control where 0% means no effect
Details: H1299 p53-A138V BP100-luciferase reporter, luminescence, 24 h; series mostly up to 92.2 µM; activity change, positive = activation: at the top concentration
How it was run: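 H1299 (p53-null), stable ts p53-A138V + BP100-Luc; 1000 cells/well, Opti-MEM/10% FBS; cpd 4 pt, 1:5; 24 h, 37 deg C, 5% CO2; detection reagent 10 min RT; luminescence.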
Potency is the fitted concentration of half-maximal effect; tags give direction and shape of the fitted curve.

| Structure (SMILES) | Potency | activity change, positive = activation |
| --- | --- | --- |
| C/C(CC(=O)Nc1ccc(Cl)cc1C(F)(F)F)=N\NC(=O)c1cccs1 | inconclusive [activator, full curve, poor fit] |  |
| O=C(COc1cc(Cl)c(Cl)cc1Cl)NC(=O)Nc1ccc2c(c1)OCCO2 | inconclusive [activator, full curve, poor fit] |  |
| COc1ccc([N+](=O)[O-])cc1NC(=O)CSc1ccccc1 | inconclusive [activator, single point] |  |
| Clc1ccc(Oc2nnnn2-c2ccccc2)cc1 | inconclusive [activator, partial curve, poor fit] |  |
| CCCNc1c(F)c(F)c2c(C)c3ccccc3nc2c1F | inconclusive [activator, full curve, poor fit] |  |
| Cc1c(C(C)(C)C)sc(=NC(=O)c2ccccc2O)n1C | inconclusive [activator, full curve, poor fit] |  |
| O=C(Nc1cc(-c2ccccc2)[nH]n1)c1ccc(Cl)cc1 | inconclusive [activator, partial curve, poor fit] |  |
| CCN(CC)C(=O)c1cc(-c2ccc(Br)cc2)on1 | inconclusive [activator, partial curve, poor fit] |  |
| Oc1cccnc1SCc1ccccc1 | inconclusive [activator, full curve] |  |
| Cc1ccc(SCc2cn3cccnc3n2)cc1 | inconclusive [activator, partial curve, poor fit] |  |
| O=C(Nc1ccccc1)c1cccc(N2CCCC2=O)c1 | inconclusive [activator, partial curve, poor fit] |  |
| Clc1ccc2nc(-c3ccc(Cl)nc3)[nH]c2c1 | inconclusive [activator, partial curve, poor fit] |  |
| O=C(CCNc1cccc(Cl)c1)c1ccco1 | inconclusive [activator, partial curve, poor fit] |  |
| CC1=C/C(=N\NC(=O)c2cccs2)CC(C)(C)C1 |  | inactive: 2.77% |
| CN(C)c1ccc(C(=O)OCC(=O)c2cccs2)cc1 | inconclusive [activator, partial curve, poor fit] |  |
| Cc1ncoc1C(=O)Nc1ccc(Oc2ccccc2)cc1 | inconclusive [activator, single point] |  |
| CCN(CC)C(=S)NC(=O)Cc1ccccc1 |  | inactive: -0.0999% |
| COc1ccc(C(=O)C2CCCN(Cc3cccn3-c3ccccn3)C2)cc1F (stereo not given) |  | inactive: -4% |
| CC(C)(C)N=Cc1c(O)ccc2oc3c(c12)CCCC3 | inconclusive [activator, single point] |  |
| CC(OC(=O)c1ccccn1)C(=O)Nc1nc(-c2ccc(F)c(F)c2)cs1 (stereo not given) | inconclusive [activator, partial curve, poor fit] |  |
| Cc1ccc(C(=O)/C=C2\NCCNC2=O)cc1 | inconclusive [activator, full curve, poor fit] |  |
| CCC1(c2ccccc2)ON(c2c(Br)cccc2Br)C1=O (stereo not given) |  | inactive: -15.1% |
| CN(c1ccccc1)c1nc(N)c([N+](=O)[O-])c(NCc2ccccc2)n1 |  | inactive: 5.59% |

| Structure (SMILES) | Potency | activity change, positive = activation |
| --- | --- | --- |
| Cc1ccc(N(CC(O)CN2CCCC2)S(=O)(=O)c2ccc(C)cc2)cc1 (stereo not given) |  | inactive: -7.05% |
| CCOC(=O)c1c(NC(=O)c2c(C(=O)O)cccc2[N+](=O)[O-])sc2c1CCCC2 |  | inactive: -3.67% |
| CN(c1ccccc1)c1nc(N)c([N+](=O)[O-])c(N2CCCCCC2)n1 | inconclusive [activator, partial curve, poor fit] |  |
| CCOC(=O)c1cc2c(=O)c3cc(C)ccc3oc2nc1C | inconclusive [activator, full curve, poor fit] |  |
| CCn1c(-c2ccc(N(C)C)cc2)nc2ccccc21 | inconclusive [activator, partial curve, poor fit] |  |
| O=C(NC1CCCCCCC1)c1c(O)c2ccccc2[nH]c1=O | inconclusive [activator, full curve, poor fit] |  |
| Cc1ccc(CCN2C(Nc3ccccc3)=NC[C@@H]2C)cc1 |  | inactive: 5.51% |
| COc1ccc(OC)c(C(C)NC(=O)C(C)Cc2ccccc2)c1 (stereo not given) | inconclusive [activator, single point] |  |
| CCCCC(=O)NCc1ccc2c(c1)cc(C)n2C |  | inactive: -8.24% |
| CC(C)(C)c1ccc(OCC(=O)NNC(=S)NC(=O)c2ccccc2[N+](=O)[O-])c(Br)c1 |  | inactive: 0.226% |
| COc1ccc(-c2nc(-c3ccc(Br)o3)no2)cc1 |  | inactive: 33% |
| Brc1ccc(OCc2nc(-c3ccccn3)n[nH]2)cc1 | inconclusive [activator, partial curve] |  |
| COc1cc(C2Nc3ccccc3C(=O)N2c2ccccc2)ccc1O (stereo not given) | inconclusive [activator, partial curve, poor fit] |  |
| COc1cc(S(=O)(=O)NCCCN2CCOCC2)ccc1-n1cnnn1 | inconclusive [activator, single point] |  |
| Cc1ccccc1NC(=O)c1cccc2nc3ccccc3nc12 |  | inactive: -6.8% |
| Cc1ccc(-c2ccc(SCC(=O)N3CCCc4ccccc43)nn2)cc1 | inconclusive [activator, full curve, poor fit] |  |
| O=C(CCCN1C(=O)/C(=C/c2ccccc2Cl)SC1=S)NNC(=O)c1cccnc1 |  | inactive: -6.13% |
| Cc1ccc(SCCC(=O)N(C)CC(=O)Nc2c(C)cccc2C)cc1 | inconclusive [activator, single point] |  |
| O=c1cc(O)n(-c2ccc(Cl)cc2)c(=S)[nH]1 |  | inactive: 4.33% |
| CCOC(=O)c1sc(NC(=S)NC(=O)CC(C)C)cc1C | inconclusive [activator, partial curve, poor fit] |  |
| O=C(O)c1cc(N/N=C/c2ccc(-c3ccc(F)cc3)o2)ccc1Cl | inconclusive [activator, full curve, poor fit] |  |
| CCN(CC)/C(Sc1ccccc1)=C(\C(Cl)=C(Cl)Cl)[N+](=O)[O-] |  | inactive: -2.23% |
